Reference: PubChem BioAssay AID651820 (National Center for Advancing Translational Sciences (NCATS), 2012)
“And” between values parts separate entries of the source, which are not always exact repeats. Identical values can stand only once. The campaign covered roughly 340,000 compounds. About 12,000 (3.5%) were called active. The inconclusive results got no clear call from the source; some entries with a clear call stand among them for comparison. Calls follow the shape of the dose curve; as a rule, active = well fitted inhibition curve with a large enough effect; inconclusive = small, poorly fitted or top-dose-only effect, or another doubt; inactive = no such curve, though single readings can be large or run the other way. Potencies of inconclusive entries are left out as doubtful fits. Some compounds were tested as several samples or in several runs, with calls that do not always agree.

test: qHTS Assay for Inhibitors of Hepatitis C Virus (HCV); conditions: Huh7.5.1 HCVcc-Cre (HCVcc is cell-culture hepatitis C virus) infection, luciferase reporter, 44 h; activity change, negative = inhibition: at 41.8 µM (top of the series) unless noted
Method in brief: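 Cells (1,000/well) were plated 4 h before compound, then infected with HCVcc-Cre virus (~0.5 moi). After 44 h further culture, infection was read as luciferase luminescence following a 15 min substrate incubation at room temperature.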
% is scaled to controls: 0 for no effect and ±100 for the full control effect; potency is read from the fitted curve at half-maximal effect; tags tell the direction and shape of the fitted curve.

| Compound | Potency | activity change, negative = inhibition |
| --- | --- | --- |
| S=c1nc(C2CCCCC2)n(-c2ccccc2)[nH]1 | inconclusive [inhibitor, single point] |  |
| CCOc1ccc(/C=C2\C(=O)c3ccccc3OC2c2ccccc2)cc1 (stereo not given) |  | inactive: 3.2% |
| COc1cc(/C=N/NC(=O)c2nnn(-c3nonc3N)c2C(C)C)ccc1O | inconclusive [inhibitor, partial curve] |  |
| COc1cc(/C=N/NC(=O)c2ccncc2)ccc1OC(=O)c1cccc(Br)c1 |  | inactive: -6.12% |
| Cc1ccc(Cl)cc1N1CCN(CC(=O)Nc2ccc(CN3CCCCC3)cc2)CC1 | active: 8.91 µM |  |
| Cn1nc(-c2ccccc2)c(-c2nc(-c3ccccc3Cl)no2)c1Cl | inconclusive [inhibitor, partial curve, poor fit] |  |
| CCCCN1C(=O)c2cccc3cc(O)cc(c23)C1=O |  | inactive: 1.37% |
| Cc1cc(C)c(NC(=O)CSc2nnc(CNC(=O)c3ccco3)o2)c(C)c1 |  | inactive: 5.81% |
| CC(C)c1ccc(OCc2nnc(SCC(=O)N3CCCCC3)o2)cc1 | inconclusive [inhibitor, single point] |  |
| COc1ccc([C@@]2(C(C)C)ON(c3ccccc3C(F)(F)F)C2=O)cc1 | inconclusive [inhibitor, single point] |  |
| C/C(=N\NC(=O)c1cc(-c2ccccn2)nc2ccccc12)c1cccc([N+](=O)[O-])c1 | inconclusive [inhibitor, full curve, poor fit] |  |
| CCn1c2ccccc2c(=O)c2ccccc21 | inconclusive [inhibitor, partial curve] |  |
| CCc1cc2c(CN3CCN(Cc4ccccc4)CC3)cc(=O)oc2cc1O | inconclusive [inhibitor, single point] |  |
| Cc1onc(-c2ccccc2Cl)c1C(=O)OCC(=O)c1ccc[nH]1 | inconclusive [inhibitor, partial curve] |  |
| Cc1ccc(CN(c2ccc(C(=O)N3CCc4ccccc4C3)cc2)S(C)(=O)=O)cc1 | active: 10 µM |  |
| CCc1ccccc1NC(=S)N(CCN(C)C)C(C)c1ccccn1 (stereo not given) | active: 22.4 µM |  |
| Cc1ccc(NC(=O)CN(C)C(=O)c2cccc(S(=O)(=O)N3CCc4ccccc43)c2)cc1 | inconclusive [inhibitor, full curve] |  |
| COc1ccc(/C(C)=N/NC(=S)NCCc2ccccc2)c(O)c1 | inconclusive [inhibitor, full curve] |  |
| Cc1cccc(NC(=O)c2ccc(NC(C)c3ccccc3)c([N+](=O)[O-])c2)n1 (stereo not given) | inconclusive [inhibitor, single point] |  |
| COc1ccc(NC(=O)Nc2ccc3c(c2)N(C)C(=O)CS3)cc1OC | inconclusive [inhibitor, partial curve] |  |
| COc1ccc(/C=C/C(=O)Nc2cc(S(=O)(=O)N3CCOCC3)ccc2OC)cc1 | inconclusive [inhibitor, single point] |  |
| CCOC(=O)C1(CCc2ccccc2)CCN(Cc2cccc3c2OCO3)CC1 | active: 10 µM |  |
| Nc1c(C(=O)Nc2ccc(S(=O)(=O)N3CCCC3)cc2)sc2nc3ccc(OC(F)(F)F)cc3cc12 | inconclusive [inhibitor, single point] |  |
| Cc1cccc(NC(=O)COC(=O)c2cccc3c2C(=O)c2ccccc2C3=O)c1C | inconclusive [inhibitor, single point] |  |

| Compound | Potency | activity change, negative = inhibition |
| --- | --- | --- |
| COc1ccc(-c2noc(C3CCCN(C(=O)c4ccc(C)cc4)C3)n2)cc1 (stereo not given) | active: 12.6 µM |  |
| CCS(=O)(=O)c1ccc2oc(Nc3ccccc3C)nc2c1 |  | inactive: -12.2% |
| O=C(Nc1ccc(-c2csc(Nc3ccccc3)n2)cc1)c1ccccc1 | inconclusive [inhibitor, partial curve] |  |
| CSc1ccc(/C=N/NC(=O)CN2CCN(Cc3ccc(Cl)cc3)CC2)cc1 | inconclusive [inhibitor, single point] |  |
| COCCNC(=O)c1c[nH]c2ccc(S(=O)(=O)Nc3ccc(F)cc3F)cc2c1=O |  | inactive: 3.06% |
| CCOC(=O)c1sc(NC(=O)c2ccc(OC(C)=O)cc2)nc1C | inconclusive [inhibitor, full curve] |  |
| O=C1CCC/C(=N\NC(=O)c2ccc(COc3cccc4cccnc34)cc2)C1 | inconclusive [inhibitor, single point] |  |
| CCCn1c(SCC(=O)Nc2ccccc2N2CCCCC2)nc2c1c(=O)n(C)c(=O)n2C | inactive and active: 10 µM |  |
| CC(=O)OC1c2c(ccc3ccc(=O)oc23)OC(C)(C)C1OC(=O)CC(C)C (stereo not given) |  | inactive: 0.969% |
| COc1ccccc1CNS(=O)(=O)c1ccc(-c2cnc(C3CC3)o2)cc1 | inconclusive [inhibitor, partial curve] |  |
| COc1ccccc1NC(=S)N1CCN(Cc2ccccc2)CC1 | inconclusive [inhibitor, single point] |  |
| Cc1ccc(Cn2ncc3c(N4CCN(Cc5ccc(Cl)cc5)CC4)ncnc32)cc1 | active: 4.47 µM |  |
| COc1ccc(CNS(=O)(=O)NCc2ccc(C)cc2)cc1OC | inconclusive [inhibitor, single point] |  |
| CCN(CC)C(=O)N1c2ccccc2CC(N(CC)CC)c2ccccc21 (stereo not given) | inconclusive [inhibitor, single point] |  |
| O=C(c1cc(-c2cccs2)nc2ccccc12)N1CCN(c2ccccc2)CC1 | inconclusive [inhibitor, single point] |  |
| CCOC(=O)c1ccc(S(=O)(=O)Nc2nc3cc(S(=O)(=O)NC4=NCCCCC4)ccc3s2)cc1 |  | inactive: -17.9% |
| COc1ccc(Cc2nc(-c3ccc(NC(=O)c4cccnc4)cc3)no2)cc1 |  | inactive: -28.5% |
| O=C(c1cc2ccccc2oc1=O)N(Cc1cccs1)Cc1cccs1 |  | inactive: -11.1% |
| COc1ccc(CNc2cc(C)nc3ccc(OC)cc23)cc1 | active: 14.1 µM |  |
| O=C(N/N=C/c1cc([N+](=O)[O-])ccc1O)C12CC3CC(CC(C3)C1)C2 | inconclusive [inhibitor, single point] |  |
| O=C(NCC1CCCO1)c1ccc2ccccc2n1 (stereo not given) |  | inactive: -11.2% |
| O=C(CCCSc1nnc(-c2cccs2)n1CC1CCCO1)c1ccccc1 (stereo not given) | inconclusive [inhibitor, partial curve, poor fit] |  |
| CC(C)n1c(SCCCc2ccccc2)nc2c1c(=O)[nH]c(=O)n2C | inconclusive [inhibitor, single point] |  |
| Cc1ccc(C)c(S(=O)(=O)N2CCN(C(=O)[C@@H](NC(=O)c3ccc(F)cc3)C(C)C)CC2)c1 | inconclusive [inhibitor, single point] |  |

| Compound | Potency | activity change, negative = inhibition |
| --- | --- | --- |
| CCOC(=O)CN1N=C(/C=C/c2ccc(C(C)C)cc2)CCC1=O | inconclusive [inhibitor, full curve, poor fit] |  |
| COC(=O)C1=C(c2ccc(-c3ccccc3)c(F)c2)C[C@@H]2CC[C@H]1N2C(=O)N1CCC(C)CC1 | inconclusive [inhibitor, partial curve] |  |
| CCOC(=O)C(c1ccccc1)C(Nc1ccc(F)cc1)c1ccccn1 (stereo not given) | inconclusive [inhibitor, single point] |  |
| COc1ccccc1Cn1c(/C=C/c2ccccc2)nc2ccccc21 | active: 10 µM |  |
| CC(O)c1cc2c(cc1NC(=O)c1cnn3c1NC(c1ccco1)CC3C(F)(F)F)OCO2 (stereo not given) | inconclusive [inhibitor, full curve, poor fit] |  |
| CC(c1ccon1)N(C)C(=O)CCc1nnc(C2(c3ccc(Cl)cc3)CCC2)o1 (stereo not given) |  | inactive: 3.53% |
| O=C(COC(=O)c1ccccc1)NCCC1=CCCCC1 |  | inactive: 10.8% |
| CN(c1ccc(OCC(=O)Nc2nc(-c3ccccc3)cs2)cc1)S(=O)(=O)c1ccc(F)cc1 | active: 10 µM |  |
| O=[N+]([O-])c1ccc(CSc2ncnc3ccccc23)cc1 | inconclusive [inhibitor, partial curve] |  |
| Cc1nnc(NCc2n[nH]c(=O)c3ccccc23)c2ccccc12 | inconclusive [inhibitor, single point] |  |
| Cn1c(N)c(C(=O)COC(=O)c2ccc(OC(F)F)cc2)c(=O)n(C)c1=O |  | inactive: 6.68% |
| CC(C)(C)C(=O)Nc1nnc(COc2ccc(Cl)cc2)s1 | inconclusive [inhibitor, full curve] |  |
| COc1ccc(-c2ccnc(-c3ccc(O)cc3)n2)cc1 | inconclusive [inhibitor, full curve] |  |
| COc1ccc(/C=N/Nc2ccc(C(=O)O)cc2)c(OC)c1OC |  | inactive: 23.7% |
| Cc1cc(Br)ccc1NC(=O)c1ccco1 | inconclusive [inhibitor, single point] |  |
| CCOc1c(C)cnc2c1c(=O)n(Cc1ccccc1F)c(=O)n2C |  | inactive: -2.82% |
| O=C(NNC(=S)NC(=O)c1ccccc1[N+](=O)[O-])c1ccccc1Cl |  | inactive: 13.2% |
| O=C(OCC(=O)N1CCCCC1)c1ccccc1SCC(=O)N1CCCCC1 | inconclusive [inhibitor, single point] |  |
| COc1ccc(NC(=O)c2nc(C)c(C3(C)CC(c4cccnc4)=NO3)s2)cc1 (stereo not given) | inconclusive [inhibitor, full curve] |  |
| O=[N+]([O-])c1cc2oc3c(c2c(C=NCc2ccccc2)c1O)CCCC3 | inconclusive [inhibitor, single point] |  |
| O=C(NCCc1nc2ccccc2[nH]1)c1ccc(Cl)c([N+](=O)[O-])c1 |  | inactive: 8.65% |
| O=C(c1cc2nc(-c3ccco3)cc(C(F)(F)F)n2n1)N1CCCc2ccccc21 |  | inactive: 4.52% |
